This note sets out measurements from article PMC6919601, “Identification of Plasmodium dipeptidyl aminopeptidase allosteric inhibitors by high throughput screening” (PLoS ONE, 2019).

The whole screen tested about 110,000 compounds, of which about 230 (0.21%) showed an effect of 50% or more. This is one part of the list.
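Note: 30 min substrate incubation versus DMSO and 10 µM JCP410 controls.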

Sequence of DPAP1 (Q8IIJ9 whole entry, looked up): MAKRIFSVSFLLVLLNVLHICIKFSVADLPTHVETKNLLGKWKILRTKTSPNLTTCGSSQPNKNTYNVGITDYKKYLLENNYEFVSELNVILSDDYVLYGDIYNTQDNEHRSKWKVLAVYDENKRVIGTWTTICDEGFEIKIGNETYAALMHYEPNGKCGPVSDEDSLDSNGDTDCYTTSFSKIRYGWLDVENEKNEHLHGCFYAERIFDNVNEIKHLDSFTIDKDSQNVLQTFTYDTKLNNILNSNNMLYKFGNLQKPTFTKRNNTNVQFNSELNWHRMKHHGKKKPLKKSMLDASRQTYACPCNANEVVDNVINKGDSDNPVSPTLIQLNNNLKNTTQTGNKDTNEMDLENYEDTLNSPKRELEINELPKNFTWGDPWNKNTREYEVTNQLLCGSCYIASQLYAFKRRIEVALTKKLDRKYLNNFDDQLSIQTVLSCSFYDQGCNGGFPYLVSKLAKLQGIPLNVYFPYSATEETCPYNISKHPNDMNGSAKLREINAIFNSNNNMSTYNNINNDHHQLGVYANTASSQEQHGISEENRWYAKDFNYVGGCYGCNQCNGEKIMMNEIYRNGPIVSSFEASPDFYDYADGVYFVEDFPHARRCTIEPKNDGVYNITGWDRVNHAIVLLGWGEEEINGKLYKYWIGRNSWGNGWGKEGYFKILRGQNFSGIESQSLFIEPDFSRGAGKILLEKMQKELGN

The test concerns the target DPAP1 (Plasmodium falciparum, UniProt Q8IIJ9). The experiment in a line: primary screen, percent inhibition; read by cleavage of a fluorogenic dipeptide substrate; higher = more effect of the substance. The arrangement: species or system P. falciparum D10 trophozoite lysates; single well.
Consider `CCOC(=O)NC1(C(F)(F)F)NC(=O)N(Cc2cccnc2)C1=O` (stereo not shown), for which the “% Inhibition @ 10 uM” value came out at 0.221%. As for `C=CCC(NCc1ccccc1)c1ccc(C)o1` (stereo not shown), the “% Inhibition @ 10 uM” value was -7.87%. In the case of `COc1ccc(OC)c(S(=O)(=O)N2CCC3(CC2)N=C(SC)C(c2ccccc2)=N3)c1`, the “% Inhibition @ 10 uM” value is -2.5%. On to `Cc1ccc(CNC(=O)Cn2nc(Cc3cccnc3)c3ccccc3c2=O)cc1`, for which the “% Inhibition @ 10 uM” value is on record as -1.21%. To `CC(C)(C)NS(=O)(=O)c1ccc(NC(=O)c2ccc(F)cc2)cc1` belongs -1.17%; to `COc1ccc(CNC(=O)CSc2nnc(C)c3c(C)n(-c4ccc(Cl)cc4)nc23)c(OC)c1`, 4.56%. Turning to `CCc1ccc(CNC(=O)C(CC)n2nc(C)c3sc4ccccc4c3c2=O)cc1` (stereo not shown), the “% Inhibition @ 10 uM” value is 90.8%. Consider `COc1ccc(CNC2CCCCC2OC)cc1` (stereo not shown), for which the “% Inhibition @ 10 uM” value is 4.61%.

As for `CCOC(=O)c1[nH]c2ccccc2c1NC(=O)c1ccc(Br)o1`, the “% Inhibition @ 10 uM” value is -0.58%. To `CCO/C(O)=C1\C(C)=NC2=C(C(=O)CC(C)(C)C2)C1c1ccc(Cl)c(Cl)c1` (stereo not shown) belongs 2.45%. As to `Cc1ccc(N2C(=O)CC(NCCc3cccc(Cl)c3)C2=O)cc1` (stereo not shown), the “% Inhibition @ 10 uM” value is given as -4.16%. Take `COc1ccc(NC(=O)c2ccc(CN3CCc4ccccc4C3)cc2)c(OC)c1`: the “% Inhibition @ 10 uM” value is reported as -0.171%. As for `COC(=O)C1=C(C)N(Cc2ccc(OC)cc2)C(=O)/C1=C\c1cc(C)n(-c2ccccc2F)c1C`, the “% Inhibition @ 10 uM” value is reported as -3.63%. As to `CC(=O)Nc1ccc(S(=O)(=O)Nc2ccccc2C(=O)NC(C)c2ccccc2)cc1` (stereo not shown), the “% Inhibition @ 10 uM” value was 0.749%. Regarding `N#CC1=C(N)Oc2[nH]nc(-c3ccccc3)c2C1c1ccc(O)c(O)c1` (stereo not shown), the “% Inhibition @ 10 uM” value was -0.996%. To `CC1CCN(S(=O)(=O)c2ccc3c(ccn3CCC(=O)N3CCC4(CC3)OCCO4)c2)CC1` belongs 7.98%. `Cc1ccc(-n2nc(C)c3c2OC(N)=C(C#N)C3c2ccsc2)cc1` (stereo not shown): the “% Inhibition @ 10 uM” value was -2.68%. Next, `CCc1cc(C(=O)Cc2nc3ccccc3[nH]2)c(O)cc1O`: 1.21%; `COc1ccc2[nH]c3c(=O)n(CCC(=O)NCCc4ccc(Cl)cc4)c(=S)[nH]c3c2c1`: -5.76%.

As for `COc1ccc(C2(O)CSC3=C(C#N)C(c4ccc(C(F)(F)F)cc4)CC(=O)N32)cc1OC` (stereo not shown), the “% Inhibition @ 10 uM” value is given as -1.74%. Take `O=S(=O)(c1ccc(-c2csc(-c3cccnc3)n2)cc1)N1CCCC1`: the “% Inhibition @ 10 uM” value is recorded as -0.661%. Consider `CC(=O)c1ccc(NC(=O)CN2CCCCC2)cc1`, for which the “% Inhibition @ 10 uM” value is -7.42%.

For the compound `CC(C)C[C@H](NC(=O)C1CCNCC1)C(=O)NC1CCCN/C1=C\[N+](=O)[O-]` (stereo partly shown), the “% Inhibition @ 10 uM” value turned out to be 2.22%.

As to `NC(=O)c1ccccc1NC(=O)c1sc2ccccc2c1Cl`, the “% Inhibition @ 10 uM” value is recorded as -3.35%. For `COc1ccccc1C1CC(=O)N=C(NC(=O)c2ccccc2)N1` (stereo not shown), the “% Inhibition @ 10 uM” value is -2.76%. As to `CCCOc1cccc(C2c3c(oc4ccc(F)cc4c3=O)C(=O)N2CCOC)c1` (stereo not shown), the “% Inhibition @ 10 uM” value was -6.71%.

In the case of `CCN(CC)CCCNC(=O)c1oc2ccc3c(c2c1C)C(O)CC(C)(C)O3` (stereo not shown), the “% Inhibition @ 10 uM” value is -0.591%. Regarding `COc1nc(N)c(C#N)c(-c2ccc3c(c2)OCO3)c1C#N`, the “% Inhibition @ 10 uM” value was 0.716%. Regarding `O=C1NC(=O)N(c2ccc(Cl)cc2)C(=O)/C1=C\NCCc1c[nH]c2ccccc12`, the “% Inhibition @ 10 uM” value is -0.725%.

With `CCOC(=O)C1CCCN(C(C)Cc2cccc(C(F)(F)F)c2)C1` (stereo not shown), the “% Inhibition @ 10 uM” value is given as -7.18%. To `Cc1[nH]c2ccccc2c1C(OC(C)C)c1ccccn1` (stereo not shown) belongs -3.33%; to `CCOC(=O)C1=C(CC)OC(N)=C(C#N)C1c1ccccc1F` (stereo not shown), 3.03%. Regarding `CC1CCN(C(=O)c2cc(-c3ccc(F)cc3)on2)CC1`, the “% Inhibition @ 10 uM” value is -1.96%. For the compound `O=C(NCc1cccnc1)/C(=C\c1ccc(Br)cc1)S(=O)(=O)c1ccccc1`, the “% Inhibition @ 10 uM” value is on record as -1.25%. To `CCOC(=O)c1c(C)c(-c2ccccc2)n(CC(=O)NC2CCC(C)CC2)c1C` (stereo not shown) belongs 3.32%; to `COc1cc2c(cc1OC)C(C)N(C(=O)c1cc3c(s1)-c1ccccc1S(=O)(=O)C3)CC2` (stereo not shown), -4.24%; to `CC(C)(C)c1ccc(/C=C/C(=O)Nc2cccnc2)cc1`, -3.14%. Take `CC(CNc1nc2c(-c3ccccc3)nnn2c2ccccc12)c1ccccc1` (stereo not shown): the “% Inhibition @ 10 uM” value is -2.92%. Next, `CCCCn1c(CNC(=O)c2cc(OC)c(OC)c(OC)c2)nc2ccccc21`: 8.55%; `Cc1ccc(C(=O)/C=C(\c2ccccc2)N2CCCCC2)cc1`: 1.44%; `CCN(CC)S(=O)(=O)c1ccc(S(=O)(=O)N(Cc2cccc(OC)c2OC)C2CC2)cc1`: -1.31%. With `C=CCC1(NCc2ccccc2)CCCCCC1`, the “% Inhibition @ 10 uM” value is listed as -4.4%. To `Cn1c(=O)[nH]c(=O)c2c1nc(Br)n2CC(O)COc1ccc2ccccc2c1` (stereo not shown) belongs -0.996%; to `CC1CCC(C(C)C)C(OC(=O)CSc2nc3ccccc3[nH]2)C1` (stereo not shown), 3.74%; to `O=C(O)c1ccc(NCCCO)c([N+](=O)[O-])c1`, -1.46%.

Take `COc1ccc(C(=O)Nc2cc(C)cc(C)c2)cc1Br`: the “% Inhibition @ 10 uM” value is on record as 5.06%. Take `CC1CCN(C2=NC(=O)/C(=C\c3ccccc3)S2)CC1`: the “% Inhibition @ 10 uM” value is listed as -0.28%. For the compound `C=CCN1C(=O)S/C(=C/c2cc(Cl)c(OC)c(OCC)c2)C1=O`, the “% Inhibition @ 10 uM” value was -1.11%. Turning to `N#Cc1nc(/C=C/c2ccc(F)cc2)oc1N1CCN(Cc2ccccc2)CC1`, the “% Inhibition @ 10 uM” value was -2.57%. Consider `CCC(C(=O)NCc1ccccc1C)n1sc2ccccc2c1=O` (stereo not shown), for which the “% Inhibition @ 10 uM” value is 3.24%.

For `O=C1NC(=O)/C(=C\c2cccc(OCc3ccccc3F)c2)S1`, the “% Inhibition @ 10 uM” value is reported as 3.04%. On to `Cc1ccc(OC(C)C(=O)Nc2ccc(C)c(O)c2)cc1` (stereo not shown), for which the “% Inhibition @ 10 uM” value is 0.795%. As to `CCc1cc(C(=O)COc2ccccc2)c(O)cc1O`, the “% Inhibition @ 10 uM” value turned out to be 2.37%. Turning to `COc1ccc(CNC(=O)C2CCCN(S(=O)(=O)c3ccc(Br)s3)C2)cc1` (stereo not shown), the “% Inhibition @ 10 uM” value is -1.92%. Regarding `N#CC(C#N)=Cc1c[nH]c2ccccc12`, the “% Inhibition @ 10 uM” value is reported as -5.33%. For the compound `COc1cc(C2C3=C(O)CCCC3=NC(C)=C2C(=O)N2CCOCC2)cc(Br)c1O` (stereo not shown), the “% Inhibition @ 10 uM” value was -2.64%. Take `Oc1ncnc2c1sc1nc3c(c(-c4ccccc4)c12)CCC3`: the “% Inhibition @ 10 uM” value is reported as -2.28%. On to `Cc1sc(NC(=O)c2ccco2)c(C(c2cccc(O)c2)N2CCOCC2)c1C` (stereo not shown), for which the “% Inhibition @ 10 uM” value is listed as -8.28%. On to `COc1ccc(/C=C2\N=C(c3cc(Br)ccc3OC)OC2=O)c(OC)c1`, for which the “% Inhibition @ 10 uM” value was -6.62%. In the case of `O=C(NCc1ccc(Cl)cc1)c1nccnc1CO`, the “% Inhibition @ 10 uM” value is listed as 2.13%.

Take `Cc1ccc(-c2onc(C)c2C)cc1S(=O)(=O)NCCc1ccc(Cl)cc1`: the “% Inhibition @ 10 uM” value was -9.1%. With `CCc1c(C#N)c(SCC(=O)Nc2nc(-c3ccccc3)ns2)nc2c1C(=O)CC(C)(C)C2`, the “% Inhibition @ 10 uM” value is listed as 3.27%. Turning to `Cc1c(Cl)cccc1N(CC(=O)Nc1cccnc1)S(C)(=O)=O`, the “% Inhibition @ 10 uM” value is recorded as -5.7%.

For the compound `N#CCCC(CCC#N)C1=NCCc2ccccc21`, the “% Inhibition @ 10 uM” value was -0.856%. On to `Cc1c(CNCCc2ccc(S(N)(=O)=O)cc2)c(C(=O)O)c(C)n1Cc1ccccc1F`, for which the “% Inhibition @ 10 uM” value is listed as -0.23%. With `Cc1nc2ccccc2n1CCc1nc2c3ccccc3nc(N3CCc4ccccc4C3)n2n1`, the “% Inhibition @ 10 uM” value is 2.6%. In the case of `CC(C)Cc1ccc(C(C)C(=O)NC(C)Cc2c[nH]c3ccccc23)cc1` (stereo not shown), the “% Inhibition @ 10 uM” value was 1.7%. With `COc1ccc(N(CC(=O)Nc2ccccc2-c2ccccc2)S(C)(=O)=O)c(OC)c1`, the “% Inhibition @ 10 uM” value is given as -3.1%. `CC(=O)Nc1ccc(N2Cc3ccccc3C2)cc1`: the “% Inhibition @ 10 uM” value was -3.77%. As for `Clc1cccc(CN2CCN(c3ncccn3)CC2)c1Cl`, the “% Inhibition @ 10 uM” value was -2.7%.

With `COC(=O)c1sccc1NC(=O)C(c1ccccc1)N1Cc2ccccc2C1=O` (stereo not shown), the “% Inhibition @ 10 uM” value is -0.501%. Turning to `CCCCOc1ccccc1C1C(C(=O)OC)=CN(Cc2ccc(OC)c(OC)c2)C=C1C(=O)OC`, the “% Inhibition @ 10 uM” value is reported as 4.99%. As to `CCCc1c(O)c2ccccc2n(-c2ccccc2)c1=O`, the “% Inhibition @ 10 uM” value is listed as -5.63%. `CCCN1CCN(c2cnnc3c(Cl)cccc23)CC1`: the “% Inhibition @ 10 uM” value is 1.4%. Turning to `Cc1nn(C(C)C(=O)NCCCc2ccccc2)c(=O)c2c1sc1ccccc12` (stereo not shown), the “% Inhibition @ 10 uM” value is given as -2.94%. To `O=C(Nc1ccc(Cc2ccncc2)cc1)c1cccc(Cl)c1` belongs 0.245%; to `COc1ccccc1/C=C1\N=C(c2ccco2)OC1=O`, -6.18%. Turning to `CCCCCSc1nnc(O)nc1O`, the “% Inhibition @ 10 uM” value worked out at 5.7%. For `Cc1ccc2c(nc3s/c(=C\c4ccc(Cl)cc4)c(=O)n32)c1C`, the “% Inhibition @ 10 uM” value was determined as 3.15%.

Take `CCOC(=O)c1c(S(=O)(=O)NCCN(C)C2CCCCC2)c(C)n(C)c1C`: the “% Inhibition @ 10 uM” value is recorded as -6.84%.

`COc1cc(CN2CCCC(O)C2)cc(OC)c1OC` (stereo not shown): the “% Inhibition @ 10 uM” value was 0.847%.

On to `COc1ccccc1CNC(=O)c1ccccc1Cl`, for which the “% Inhibition @ 10 uM” value is listed as 3.53%.

As to `Cc1cc2nc(COc3cccc(C(F)(F)F)c3)cc(=O)n2o1`, the “% Inhibition @ 10 uM” value was -0.495%. Regarding `Cc1cccc(C(=O)Nc2nc3nc(C)c(Cc4ccccc4)c(O)n3n2)c1`, the “% Inhibition @ 10 uM” value is listed as -4.91%.

Consider `O=C(Cn1nc(Cc2ccncc2)c2ccccc2c1=O)N1CCCC1`, for which the “% Inhibition @ 10 uM” value is -1.21%. Consider `Cc1ccc(C)c(COC(=O)N[C@@H](CC(C)C)C(=O)NCC#N)c1`, for which the “% Inhibition @ 10 uM” value is reported as -3.24%. Turning to `CCCCNc1ncnc2c1sc1nc(N3CCCC3)c3c(c12)CC(C)(C)OC3`, the “% Inhibition @ 10 uM” value is -1.72%.

As for `Cc1csc(NC(=O)C(c2ccccc2)N2Cc3ccccc3C2=O)n1` (stereo not shown), the “% Inhibition @ 10 uM” value is -3.88%. For the compound `O=C(Nc1cccc(NC(=O)c2ccc3c(c2)OCO3)c1)c1ccc2c(c1)OCO2`, the “% Inhibition @ 10 uM” value is on record as 2.42%. For `CCC(C(=O)Nc1ccccc1OC)c1ccccc1` (stereo not shown), the “% Inhibition @ 10 uM” value is given as -1.56%. `CCC1CCCCN1CCCNC(=O)Cn1c(=O)c2cccn2c2cccnc21` (stereo not shown): the “% Inhibition @ 10 uM” value is listed as -0.677%. As to `CCC(=O)N1CCN(CCNC=C2C(=O)N(C3CCCCC3)C(=O)N(C3CCCCC3)C2=O)CC1`, the “% Inhibition @ 10 uM” value is recorded as -11.2%. To `CCOC(=O)c1c(-c2ccccc2)c(C(C)=O)c(=O)n(C)c1C` belongs 12.8%. With `COc1ccc(C(=O)Nc2cccc3ccccc23)cc1OC`, the “% Inhibition @ 10 uM” value was -0.192%. Take `O=C(NCCC(c1ccccc1)c1ccccc1)c1cc2ccccc2c(=O)o1`: the “% Inhibition @ 10 uM” value was -4.77%. As to `Cc1ccc(NC(=O)c2ccc(Br)cc2)cc1Cl`, the “% Inhibition @ 10 uM” value was -1.22%. On to `CCOc1ccc(/C=c2\sc3nc(-c4cc(OC)c(OC)c(OC)c4)nn3c2=O)cc1OC`, for which the “% Inhibition @ 10 uM” value stood at 3.87%.
